Measured values as given in US8242166B2, “C(10) ethyl ester and C(10) cyclopropyl ester substituted taxanes” (Florida State University Research Foundation, Inc., priority 2008, dated 2012).
Values joined by “and” are separate entries in the source; they are usually repeats but may differ in a detail not shown here. Identical values can stand only once.

Key:
Sprague-Dawley rats [1] = experiment: Rat toxicity study e196; type: in vivo
Sprague-Dawley rats [2] = experiment: Rat toxicity study e346 multiple dose; conditions: for Score AVE: average rat toxicity score of 3 rats; for Day 1 BW: body weight Day 1; for Day 22 BW: body weight Day 22; for Day 24 BW: body weight Day 24; for Score: rat toxicity score; for Total: sum of score points; for axonal degeneration vs docetaxel: ethanol, Liposyn II 20% (5:95)
Sprague-Dawley rats [3] = experiment: Rat toxicity study e195; type: in vivo
Sprague-Dawley rats [4] = experiment: Rat toxicity study e199
[5] = 12 mg/kg IV, individual rats, axonal degeneration grade
[6] = 12 mg/kg IV, individual rats, sum of points, possible 130
[7] = 12 mg/kg IV, individual rats, total divided by 13, scale 0 to 10
[8] = 12 mg/kg IV, average of three rats
[9] = intravenous, ethanol and Liposyn II 20% formulation

SMILES: CC(=O)O[C@@]12CO[C@@H]1C[C@H](O)[C@@]1(C)C(=O)[C@H](OC(=O)C3CC3)C3=C(C)[C@@H](OC(=O)[C@H](O)[C@@H](NC(=O)OC4CCC4)c4cccs4)C[C@@](O)([C@@H](OC(=O)c4ccccc4)C12)C3(C)C (some centres unmarked) [Compound 18365]
- Day 1 BW (Sprague-Dawley rats [1]; 12 mg/kg IV, individual rats): 222 and 229 and 239
- Day 4 ALT (Sprague-Dawley rats [1]; 12 mg/kg IV, individual rats): 19 and 20 (2×)
- Day 4 AST (Sprague-Dawley rats [1]; 12 mg/kg IV, individual rats): 101 and 81 and 98
- Day 4 BUN (Sprague-Dawley rats [1]; 12 mg/kg IV, individual rats): 18 and 15 (2×)
- Day 4 PLT (Sprague-Dawley rats [1]; 12 mg/kg IV, individual rats): 968 and 1035 and 1106
- Day 4 WBC (Sprague-Dawley rats [1]; 12 mg/kg IV, individual rats): 5.65 and 3.39 and 5.62
- Day 8 BW (Sprague-Dawley rats [1]; 12 mg/kg IV, individual rats): 203 and 213 and 225
- Day 10 BW (Sprague-Dawley rats [1]; 12 mg/kg IV, individual rats): 211 and 225 and 241
- Day 10 PLT (Sprague-Dawley rats [1]; 12 mg/kg IV, individual rats): 1201 and 1080 and 1214
- Day 10 WBC (Sprague-Dawley rats [1]; 12 mg/kg IV, individual rats): 10.2 and 13.4 and 12.1
- Neuro Tox (Sprague-Dawley rats [1]; [5]): 0 (no degen axons)
- Total (Sprague-Dawley rats [1]; [6]): 105 and 85 and 110
- Score (Sprague-Dawley rats [1]; [7]): 8.1 and 6.5 and 8.5
- Score AVE (Sprague-Dawley rats [1]; [8]): 7.7
- axonal degeneration (Sprague-Dawley rats [1]; [9]): no axonal degeneration
- rat toxicity score (Sprague-Dawley rats [1]; [9]): 7.7
- Score AVE (Sprague-Dawley rats [2]; 12 mg/kg IV): 6.4
- Day 18 AST (Sprague-Dawley rats [2]; 12 mg/kg IV, individual rat): 162 and 153 and 276
- Day 18 BUN (Sprague-Dawley rats [2]; 12 mg/kg IV, individual rat): 10 and 9 (2×)
- Day 18 PLT (Sprague-Dawley rats [2]; 12 mg/kg IV, individual rat): 699 and 772 and 751
- Day 18 WBC (Sprague-Dawley rats [2]; 12 mg/kg IV, individual rat): 4.03 and 4.68 and 7.36
- Day 24 PLT (Sprague-Dawley rats [2]; 12 mg/kg IV, individual rat): 1270 and 1053 and 1305
- Day 24 WBC (Sprague-Dawley rats [2]; 12 mg/kg IV, individual rat): 7.03 and 6.24 and 14.4
- Day 1 BW (Sprague-Dawley rats [2]; 12 mg/kg IV, individual rat): 214 and 236 and 260
- Day 22 BW (Sprague-Dawley rats [2]; 12 mg/kg IV, individual rat): 201 and 226 and 230
- Day 24 BW (Sprague-Dawley rats [2]; 12 mg/kg IV, individual rat): 216 and 232 and 241
- Score (Sprague-Dawley rats [2]; 12 mg/kg IV, individual rat): 6.9 and 7.7 and 4.6
- Total (Sprague-Dawley rats [2]; 12 mg/kg IV, individual rat): 90 and 100 and 60
- axonal degeneration vs docetaxel (Sprague-Dawley rats [2]; weekly): much less axonal degeneration than docetaxel

SMILES: CC(=O)O[C@@]12CO[C@@H]1C[C@H](O)[C@@]1(C)C(=O)[C@H](OC(=O)C3CC3)C3=C(C)[C@@H](OC(=O)[C@H](O)[C@@H](NC(=O)OC4CCCC4)c4cccs4)C[C@@](O)([C@@H](OC(=O)c4ccccc4)C12)C3(C)C (some centres unmarked) [Compound 17932]
- Day 1 BW (Sprague-Dawley rats [3]; 12 mg/kg IV, individual rats): 231 and 230 and 234
- Day 4 ALT (Sprague-Dawley rats [3]; 12 mg/kg IV, individual rats): 20 and 24 and 27
- Day 4 AST (Sprague-Dawley rats [3]; 12 mg/kg IV, individual rats): 100 and 111 and 121
- Day 4 BUN (Sprague-Dawley rats [3]; 12 mg/kg IV, individual rats): 9 (2×) and 15
- Day 4 PLT (Sprague-Dawley rats [3]; 12 mg/kg IV, individual rats): 836 and 854 and 742
- Day 4 WBC (Sprague-Dawley rats [3]; 12 mg/kg IV, individual rats): 7.92 and 9.24 and 5.47
- Day 8 BW (Sprague-Dawley rats [3]; 12 mg/kg IV, individual rats): 205 and 211 (2×)
- Day 10 BW (Sprague-Dawley rats [3]; 12 mg/kg IV, individual rats): 210 and 211 and 226
- Day 10 PLT (Sprague-Dawley rats [3]; 12 mg/kg IV, individual rats): 1207 and 1506 and 957
- Day 10 WBC (Sprague-Dawley rats [3]; 12 mg/kg IV, individual rats): 14.6 and 25.3 and 11.2
- Total (Sprague-Dawley rats [3]; [6]): 95 and 100 and 120
- Score (Sprague-Dawley rats [3]; [7]): 7.3 and 7.7 and 9.2
- axonal degeneration (Sprague-Dawley rats [3]; [9]): very little axonal degeneration
- rat toxicity score (average) (Sprague-Dawley rats [3]; [9]): 8.1
- rat toxicity score (single values averaged) (Sprague-Dawley rats [3]; [9]): 7.3 and 7.7 and 9.2
- Score AVE (Sprague-Dawley rats [2]; 12 mg/kg IV): 5.9
- Day 18 ALT (Sprague-Dawley rats [2]; 12 mg/kg IV, individual rat): 38 (2×) and 28
- Day 18 AST (Sprague-Dawley rats [2]; 12 mg/kg IV, individual rat): 164 and 142 and 144
- Day 18 BUN (Sprague-Dawley rats [2]; 12 mg/kg IV, individual rat): 16 and 12 and 11
- Day 18 PLT (Sprague-Dawley rats [2]; 12 mg/kg IV, individual rat): 546 and 1083 and 627
- Day 18 WBC (Sprague-Dawley rats [2]; 12 mg/kg IV, individual rat): 5.2 and 5.04 and 4.52
- Day 24 PLT (Sprague-Dawley rats [2]; 12 mg/kg IV, individual rat): 1134 and 1329 and 1010
- Day 1 BW (Sprague-Dawley rats [2]; 12 mg/kg IV, individual rat): 250 and 231 and 230
- Day 22 BW (Sprague-Dawley rats [2]; 12 mg/kg IV, individual rat): 190 and 185 and 168
- Day 24 BW (Sprague-Dawley rats [2]; 12 mg/kg IV, individual rat): 193 and 199 and 188
- Score (Sprague-Dawley rats [2]; 12 mg/kg IV, individual rat): 5.4 and 6.5 and 5.8
- Total (Sprague-Dawley rats [2]; 12 mg/kg IV, individual rat): 70 and 85 and 75
- axonal degeneration vs docetaxel (Sprague-Dawley rats [2]; weekly): much less axonal degeneration than docetaxel

SMILES: CCC(=O)O[C@H]1C(=O)[C@@]2(C)C([C@H](OC(=O)c3ccccc3)[C@]3(O)C[C@H](OC(=O)[C@H](O)[C@@H](NC(=O)OC4CCC4)c4cccs4)C(C)=C1C3(C)C)[C@]1(OC(C)=O)CO[C@@H]1C[C@@H]2O (some centres unmarked) [Compound 19244]
- Score AVE (Sprague-Dawley rats [2]; 12 mg/kg IV): 6.0
- Day 18 ALT (Sprague-Dawley rats [2]; 12 mg/kg IV, individual rat): 30 and 31 and 64
- Day 18 AST (Sprague-Dawley rats [2]; 12 mg/kg IV, individual rat): 143 and 117 and 158
- Day 18 BUN (Sprague-Dawley rats [2]; 12 mg/kg IV, individual rat): 9 and 10 and 11
- Day 18 PLT (Sprague-Dawley rats [2]; 12 mg/kg IV, individual rat): 724 and 1221 and 980
- Day 18 WBC (Sprague-Dawley rats [2]; 12 mg/kg IV, individual rat): 3.3 and 3.79 and 3.97
- Day 24 PLT (Sprague-Dawley rats [2]; 12 mg/kg IV, individual rat): 940 and 653 and 1531
- Day 24 WBC (Sprague-Dawley rats [2]; 12 mg/kg IV, individual rat): 7.1 and 3.11 and 9.13
- Neuro Tox (Sprague-Dawley rats [2]; 12 mg/kg IV, individual rat, axonal degeneration grade): 3 (11-50 degen axons)
- Day 1 BW (Sprague-Dawley rats [2]; 12 mg/kg IV, individual rat): 226 and 244 and 233
- Day 22 BW (Sprague-Dawley rats [2]; 12 mg/kg IV, individual rat): 198 and 201 and 184
- Day 24 BW (Sprague-Dawley rats [2]; 12 mg/kg IV, individual rat): 208 and 216 and 196
- Score (Sprague-Dawley rats [2]; 12 mg/kg IV, individual rat): 6.9 and 5.8 and 5.4
- Total (Sprague-Dawley rats [2]; 12 mg/kg IV, individual rat): 90 and 75 and 70
- axonal degeneration vs docetaxel (Sprague-Dawley rats [2]; weekly): high axonal degeneration, but was still lower than docetaxel

SMILES: CCC(=O)O[C@H]1C(=O)[C@@]2(C)C([C@H](OC(=O)c3ccccc3)[C@]3(O)C[C@H](OC(=O)[C@H](O)[C@@H](NC(=O)OC4CCCC4)c4cccs4)C(C)=C1C3(C)C)[C@]1(OC(C)=O)CO[C@@H]1C[C@@H]2O (some centres unmarked) [Compound 18926]
- Day 1 BW (Sprague-Dawley rats [4]; 12 mg/kg IV, individual rats): 219 and 241 and 231
- Day 4 ALT (Sprague-Dawley rats [4]; 12 mg/kg IV, individual rats): 26 and 31 and 32
- Day 4 BUN (Sprague-Dawley rats [4]; 12 mg/kg IV, individual rats): 9 (2×) and 12
- Day 4 PLT (Sprague-Dawley rats [4]; 12 mg/kg IV, individual rats): 829 and 960 and 948
- Day 4 WBC (Sprague-Dawley rats [4]; 12 mg/kg IV, individual rats): 5.06 and 5.79 and 4.86
- Day 8 BW (Sprague-Dawley rats [4]; 12 mg/kg IV, individual rats): 200 and 213 and 206
- Day 10 BW (Sprague-Dawley rats [4]; 12 mg/kg IV, individual rats): 204 and 223 and 208
- Day 10 PLT (Sprague-Dawley rats [4]; 12 mg/kg IV, individual rats): 1319 and 1547 and 1442
- Day 10 WBC (Sprague-Dawley rats [4]; 12 mg/kg IV, individual rats): 12.8 and 11.8 and 11.6
- Neuro Tox (Sprague-Dawley rats [4]; [5]): 0 (no degen axons)
- Total (Sprague-Dawley rats [4]; [6]): 100 (2×) and 90
- Score (Sprague-Dawley rats [4]; [7]): 7.7 (2×) and 6.9
- Score AVE (Sprague-Dawley rats [4]; [8]): 7.4
- axonal degeneration (Sprague-Dawley rats [4]; intravenous): no axonal degeneration
- rat toxicity score (Sprague-Dawley rats [4]; intravenous): 7.4
- Score AVE (Sprague-Dawley rats [2]; 12 mg/kg IV): 3.7
- Day 18 ALT (Sprague-Dawley rats [2]; 12 mg/kg IV, individual rat): 60 and 102 and 49
- Day 18 AST (Sprague-Dawley rats [2]; 12 mg/kg IV, individual rat): 237 and 389 and 283
- Day 18 BUN (Sprague-Dawley rats [2]; 12 mg/kg IV, individual rat): 18 (2×) and 16
- Day 18 PLT (Sprague-Dawley rats [2]; 12 mg/kg IV, individual rat): 611 and 772 and 943
- Day 18 WBC (Sprague-Dawley rats [2]; 12 mg/kg IV, individual rat): 4.74 and 3.3 and 4.93
- Day 24 WBC (Sprague-Dawley rats [2]; 12 mg/kg IV, individual rat): 12.3 and 11.4 and 10.2
- Day 1 BW (Sprague-Dawley rats [2]; 12 mg/kg IV, individual rat): 222 and 227 and 255
- Day 22 BW (Sprague-Dawley rats [2]; 12 mg/kg IV, individual rat): 156 and 160 and 168
- Day 24 BW (Sprague-Dawley rats [2]; 12 mg/kg IV, individual rat): 166 and 169 and 176
- Score (Sprague-Dawley rats [2]; 12 mg/kg IV, individual rat): 3.1 and 3.8 and 4.2
- Total (Sprague-Dawley rats [2]; 12 mg/kg IV, individual rat): 40 and 50 and 55
- rat toxicity score vs docetaxel (Sprague-Dawley rats [2]; weekly): lower score than docetaxel
- axonal degeneration vs docetaxel (Sprague-Dawley rats [2]; weekly): much less axonal degeneration than docetaxel
